From the supplement of paper PMC3334620
In all, about 33,000 sequences were measured (“E-score (-0.5 to 0.5)”: median about -0.016, highest 2% from about 0.32 on). Some of the results follow.

Biological target: T1, Stp1 (UniProt B3LFK1)
T1 sequence: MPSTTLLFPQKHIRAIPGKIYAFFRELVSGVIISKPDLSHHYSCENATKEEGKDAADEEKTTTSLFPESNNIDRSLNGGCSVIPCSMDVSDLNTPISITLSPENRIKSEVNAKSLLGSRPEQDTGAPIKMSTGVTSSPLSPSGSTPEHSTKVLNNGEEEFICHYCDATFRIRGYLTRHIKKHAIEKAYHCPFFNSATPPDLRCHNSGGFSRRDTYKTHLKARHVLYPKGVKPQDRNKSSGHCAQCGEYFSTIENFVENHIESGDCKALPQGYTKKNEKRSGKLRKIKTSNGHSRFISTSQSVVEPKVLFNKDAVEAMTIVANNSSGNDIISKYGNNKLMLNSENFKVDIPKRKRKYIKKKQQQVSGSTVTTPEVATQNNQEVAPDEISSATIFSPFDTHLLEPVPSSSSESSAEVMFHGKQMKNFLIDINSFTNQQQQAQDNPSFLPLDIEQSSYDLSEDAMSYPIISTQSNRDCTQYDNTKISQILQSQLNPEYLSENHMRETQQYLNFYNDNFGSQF
Assay: PBM E-score (8-mer binding enrichment) (E-score (-0.5 to 0.5)); higher = stronger / more preferred TF binding; most listed sequences are background and not binding sites
Details: protein concentration: 200 nM; construct: GST-full length
Procedure, shortened: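 Universal all-10-mer Agilent arrays, fresh or stripped once, were converted to double-stranded form by primer extension. GST-tagged yeast transcription factors from PURExpress in vitro transcription/translation, full-length or DNA-binding domain only, were applied at about 100-200 nM and detected with fluorescent anti-GST. After masliner normalisation, the Universal PBM Analysis Suite scored each ungapped eight-base word together with its reverse complement by E-score.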

Sequence | PBM E-score
AAAATAAG | 0.0684
ATTGCTTC | -0.0312
AAAACAAC | -0.0645
CGCAACAA | 0.0995
GCTTCTAA | -0.126
ATTTCCAG | -0.0961
CCCATATC | -0.109
CCCTTAAA | -0.0855
TCGTTACA | -0.0277
AAGGCCGG | 0.128
GGTAGGGA | -0.00966
GAGGCGAC | 0.155
AGCAACTA | 0.0808
CCTTAGTC | -0.245
CAAAGTTA | 0.235
CAAGCGAA | -0.0793
ATTTGGGG | -0.114
TCGGCCCA | -0.116
GGCTCGGA | -0.282
CTGGTTAC | -0.183
ATCTTAAT | 0.0159
CTGTAGCA | -0.0299

Sequence | PBM E-score
AATCCATC | -0.0702
GCTTAGAA | -0.0455
ATACTCGA | -0.11
CGCGCGCG | 0.405
CTGTAGAC | -0.0162
TTACACAA | 0.295
TCGCTGCA | 0.0175
CTGGATTA | 0.00615
ACATGGGC | -0.00178
CGCCGTCA | 0.216
ACCCTTCT | -0.205
TCCGCTAA | -0.0219
CGCTGTAC | -0.0719
GCTGCTCC | -0.169
AACGTAGC | -0.0957
ATGACTTA | 0.00641
CACGGAAG | 0.0821
GAGCGCGA | 0.0541
ATCTGACC | -0.0188
GAGTGATC | -0.144
ATTTACGA | 0.18
AGGTCCTC | -0.124

Sequence | PBM E-score
AGCGTGAA | -0.129
TAGGCAGA | 0.0908
GCTGGGCA | -0.0152
CCACCTAG | -0.373
CATCATCG | -0.0866
TCCGGAGA | -0.275
ACCAACTA | 0.13
AAGACCGC | -0.0872
ACGTCTTC | -0.153
ACCTATGC | 0.0967
CGCGTTAG | 0.223
ATACGTGA | 0.0388
ATGTCTAG | 0.154
CCTCGGTA | -0.25
CCCAGCCA | -0.171
AGGTGCTA | -0.115
GATGGTGC | -0.181
ATGAACTA | 0.0852
ATATGAAT | 0.117
AGGCCGGC | -0.0598
CCCGTTAG | -0.166
CGGCATAG | 0.312

Sequence | PBM E-score
CCCATCAG | -0.248
TATTTTAA | 0.116
ACGCAAAC | 0.174
ACCCCAGC | -0.172
ATTACGAA | 0.077
CCCGACAG | -0.174
CAAAATCA | 0.0708
CGAGGTCA | -0.205
GCTCCCGA | -0.19
CGTATGGC | 0.267
GTCTTGGA | -0.143
AATAGAGC | 0.107
GGCCCGGA | -0.222
CCGCGCCC | 0.279
AAGAGTAC | -0.0411
TCTCAAGA | 0.0764
AACGCAAT | 0.251
ACCACTTC | -0.242
AAGCATCA | -0.109
AGCTGCGC | -0.00969
